# Assay results taken from the supplement of paper PMC10037445.
# Over roughly 2,900 compounds, “IRF Lucia reporter activity, fold change vs agonist alone” has its median near 0.9; the highest 2% begin near 2.8. This is one part of the list.
# What was measured:
# RAW-Dual [1] = experiment: IRF Lucia reporter activity, fold change vs agonist alone; cytotoxicity flag (confluency mask): not cytotoxic; higher = enhanced IRF activity
# Procedure, shortened: (§1)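 After 50 nL of library stock was delivered by pin tool to RAW-Dual macrophages (50,000 cells/well, DMEM, 384-well plates), a PRR agonist was added 1 h later and the plates were kept at 37 °C, 5% CO2. Twenty hours later, IRF was read from supernatant by QuantiLuc luminescence and NF-κB by QuantiBlue absorbance at 620 nm. Reporter activity is stated as fold change over agonist-alone wells. Wells with IncuCyte confluency under 70% of agonist controls in both mask sets were counted as cytotoxic.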
# RAW-Dual [2] = experiment: IRF Lucia reporter activity, fold change vs agonist alone; higher = enhanced IRF activity; conditions: library stock concentration (final ~1000-fold dilution): 10 mM, agonist: MPLA (TLR4) […]
# Procedure, shortened: as §1
# RAW-Dual [3] = experiment: IRF Lucia reporter activity, fold change vs agonist alone; cytotoxicity flag (confluency mask): cytotoxic (confluency <70% of control); higher = enhanced IRF activity
# Procedure, shortened: as §1
# [4] = agonist: 3'3'-cGAMP (STING) 10 ug/mL
# [5] = cytotoxicity flag (confluency mask): not cytotoxic
compound,measurement,setting,value
CCC1(c2c[nH]cn2)Cc2ccccc2C1.Cl (library stock concentration (final ~1000-fold dilution): 10 mM),IRF Lucia reporter activity,RAW-Dual [1]; [4],1.08
same,IRF Lucia reporter activity,RAW-Dual [1]; agonist: LPS (TLR4) 0.1 ug/mL,1.3
CCC1(c2c[nH]cn2)Cc2ccccc2C1.Cl,IRF Lucia reporter activity,RAW-Dual [2]; [5],1.08
CC(=O)OC(C)(C)/C=C/C(=O)C(C)(O)C1C(O)CC2(C)C3CC=C4C(CC(O)C(=O)C4(C)C)C3(C)C(=O)CC12C (configuration not stated) (library stock concentration (final ~1000-fold dilution): 10 mM),IRF Lucia reporter activity,RAW-Dual [1]; [4],0.0972
same,IRF Lucia reporter activity,RAW-Dual [1]; agonist: LPS (TLR4) 0.1 ug/mL,0.031
O=c1[nH]c2ccccc2n1CCCN1CCC(n2c(=O)[nH]c3cc(Cl)ccc32)CC1 (library stock concentration (final ~1000-fold dilution): 10 mM),IRF Lucia reporter activity,RAW-Dual [1]; [4],0.923
same,IRF Lucia reporter activity,RAW-Dual [1]; agonist: LPS (TLR4) 0.1 ug/mL,1.27
O=c1[nH]c2ccccc2n1CCCN1CCC(n2c(=O)[nH]c3cc(Cl)ccc32)CC1,IRF Lucia reporter activity,RAW-Dual [2]; [5],1.31
CC1CCCC(=O)CCC/C=C/c2cc(O)cc(O)c2C(=O)O1 (configuration not stated),IRF Lucia reporter activity,RAW-Dual [2]; [5],1.44
CC1CCCC(=O)CCC/C=C/c2cc(O)cc(O)c2C(=O)O1 (configuration not stated) (library stock concentration (final ~1000-fold dilution): 10 mM),IRF Lucia reporter activity,RAW-Dual [1]; [4],0.923
same,IRF Lucia reporter activity,RAW-Dual [1]; agonist: LPS (TLR4) 0.1 ug/mL,0.991
c1ccc2c(c1)Sc1ccccc1N2CC1CN2CCC1CC2 (configuration not stated) (library stock concentration (final ~1000-fold dilution): 10 mM),IRF Lucia reporter activity,RAW-Dual [3]; [4],0.767
same,IRF Lucia reporter activity,RAW-Dual [3]; agonist: LPS (TLR4) 0.1 ug/mL,0.761
c1ccc2c(c1)Sc1ccccc1N2CC1CN2CCC1CC2 (configuration not stated),IRF Lucia reporter activity,RAW-Dual [2]; cytotoxicity flag (confluency mask): cytotoxic (confluency <70% of control),1.55
Cc1c(C(C)C2NCC(C)CC2O)ccc2c1CC1C2CC=C2CC(O)CCC21C (configuration not stated),IRF Lucia reporter activity,RAW-Dual [2]; [5],1.15
Cc1c(C(C)C2NCC(C)CC2O)ccc2c1CC1C2CC=C2CC(O)CCC21C (configuration not stated) (library stock concentration (final ~1000-fold dilution): 10 mM),IRF Lucia reporter activity,RAW-Dual [1]; [4],0.394
same,IRF Lucia reporter activity,RAW-Dual [1]; agonist: LPS (TLR4) 0.1 ug/mL,1.34
CS(=O)(=O)c1ccc(C(=O)C2C(=O)CCCC2=O)c(Cl)c1 (library stock concentration (final ~1000-fold dilution): 10 mM),IRF Lucia reporter activity,RAW-Dual [1]; [4],0.206
same,IRF Lucia reporter activity,RAW-Dual [1]; agonist: LPS (TLR4) 0.1 ug/mL,0.384
O=S(=O)(CC1CS1)c1ccc(Oc2ccccc2)cc1 (configuration not stated) (library stock concentration (final ~1000-fold dilution): 10 mM),IRF Lucia reporter activity,RAW-Dual [1]; [4],0.174
same,IRF Lucia reporter activity,RAW-Dual [1]; agonist: LPS (TLR4) 0.1 ug/mL,2.37
O=S(=O)(CC1CS1)c1ccc(Oc2ccccc2)cc1 (configuration not stated),IRF Lucia reporter activity,RAW-Dual [2]; [5],2.5
COc1ccc2c(c1)[nH]c1c(C)nccc12.Cl,IRF Lucia reporter activity,RAW-Dual [2]; [5],0.144
COc1ccc2c(c1)[nH]c1c(C)nccc12.Cl (library stock concentration (final ~1000-fold dilution): 10 mM),IRF Lucia reporter activity,RAW-Dual [1]; [4],0.233
same,IRF Lucia reporter activity,RAW-Dual [1]; agonist: LPS (TLR4) 0.1 ug/mL,0.0986
C[N+]1(C)C2CC(OC(=O)C(CO)c3ccccc3)CC1C1OC12 (configuration not stated),IRF Lucia reporter activity,RAW-Dual [2]; [5],0.903
C[N+]1(C)C2CC(OC(=O)C(CO)c3ccccc3)CC1C1OC12 (configuration not stated) (library stock concentration (final ~1000-fold dilution): 10 mM),IRF Lucia reporter activity,RAW-Dual [1]; [4],1.07
same,IRF Lucia reporter activity,RAW-Dual [1]; agonist: LPS (TLR4) 0.1 ug/mL,0.83
CCC12C=CCN3CCC4(C(=C(C(=O)OC)C1)Nc1ccccc14)C32.Cl (configuration not stated),IRF Lucia reporter activity,RAW-Dual [2]; [5],0.567
CCC12C=CCN3CCC4(C(=C(C(=O)OC)C1)Nc1ccccc14)C32.Cl (configuration not stated) (library stock concentration (final ~1000-fold dilution): 10 mM),IRF Lucia reporter activity,RAW-Dual [1]; [4],0.952
same,IRF Lucia reporter activity,RAW-Dual [1]; agonist: LPS (TLR4) 0.1 ug/mL,0.735
CC(=O)OC1CCC2(C)C(=CCC3C4CCC(=O)C4(C)CCC32)C1 (configuration not stated),IRF Lucia reporter activity,RAW-Dual [2]; [5],1.09
CC(=O)OC1CCC2(C)C(=CCC3C4CCC(=O)C4(C)CCC32)C1 (configuration not stated) (library stock concentration (final ~1000-fold dilution): 10 mM),IRF Lucia reporter activity,RAW-Dual [1]; [4],1.01
same,IRF Lucia reporter activity,RAW-Dual [1]; agonist: LPS (TLR4) 0.1 ug/mL,1.9
Br.CN1C2CC(OC(=O)C(CO)c3ccccc3)CC1C(O)C2 (configuration not stated) (library stock concentration (final ~1000-fold dilution): 10 mM),IRF Lucia reporter activity,RAW-Dual [1]; [4],0.968
same,IRF Lucia reporter activity,RAW-Dual [1]; agonist: LPS (TLR4) 0.1 ug/mL,0.959
CN1C(=O)C23CC4(C56CC78SSC(CO)(C(=O)N7C5Nc5ccccc56)N(C)C8=O)c5ccccc5NC4N2C(=O)C1(CO)SS3 (configuration not stated) (library stock concentration (final ~1000-fold dilution): 10 mM),IRF Lucia reporter activity,RAW-Dual [3]; [4],0.0161
same,IRF Lucia reporter activity,RAW-Dual [3]; agonist: LPS (TLR4) 0.1 ug/mL,0.0187
C1CCc2nnnn2CC1,IRF Lucia reporter activity,RAW-Dual [2]; [5],1.16
C1CCc2nnnn2CC1 (library stock concentration (final ~1000-fold dilution): 10 mM),IRF Lucia reporter activity,RAW-Dual [1]; [4],1.08
same,IRF Lucia reporter activity,RAW-Dual [1]; agonist: LPS (TLR4) 0.1 ug/mL,1.32
C=CCN1CC(C(=O)N(CCCN(C)C)C(=O)NCC)CC2c3cccc4[nH]cc(c34)CC21 (configuration not stated) (library stock concentration (final ~1000-fold dilution): 10 mM),IRF Lucia reporter activity,RAW-Dual [1]; [4],0.906
same,IRF Lucia reporter activity,RAW-Dual [1]; agonist: LPS (TLR4) 0.1 ug/mL,1.09
C=CCN1CC(C(=O)N(CCCN(C)C)C(=O)NCC)CC2c3cccc4[nH]cc(c34)CC21 (configuration not stated),IRF Lucia reporter activity,RAW-Dual [2]; [5],1.34
CC[C@H]1CN2CC[C@]3(C(=O)Nc4ccccc43)[C@@H]2C[C@@H]1/C(=C\OC)C(=O)OC (library stock concentration (final ~1000-fold dilution): 10 mM),IRF Lucia reporter activity,RAW-Dual [1]; [4],0.931
same,IRF Lucia reporter activity,RAW-Dual [1]; agonist: LPS (TLR4) 0.1 ug/mL,1.09
COC1=CC2C3Cc4ccc(OC)c(O)c4C2(CCN3C)CC1=O.Cl (configuration not stated),IRF Lucia reporter activity,RAW-Dual [2]; [5],1.16
COC1=CC2C3Cc4ccc(OC)c(O)c4C2(CCN3C)CC1=O.Cl (configuration not stated) (library stock concentration (final ~1000-fold dilution): 10 mM),IRF Lucia reporter activity,RAW-Dual [1]; [4],1.17
same,IRF Lucia reporter activity,RAW-Dual [1]; agonist: LPS (TLR4) 0.1 ug/mL,1.15
CC1=CC2Cc3[nH]c(=O)ccc3C3(C1)NCCCC23 (configuration not stated) (library stock concentration (final ~1000-fold dilution): 10 mM),IRF Lucia reporter activity,RAW-Dual [1]; [4],1.05
same,IRF Lucia reporter activity,RAW-Dual [1]; agonist: LPS (TLR4) 0.1 ug/mL,1.22
COc1cc(C2OCC3C(c4cc(OC)c(OC5OC(CO)C(O)C(O)C5O)c(OC)c4)OCC23)cc(OC)c1OC1OC(CO)C(O)C(O)C1O (configuration not stated) (library stock concentration (final ~1000-fold dilution): 10 mM),IRF Lucia reporter activity,RAW-Dual [1]; [4],0.893
same,IRF Lucia reporter activity,RAW-Dual [1]; agonist: LPS (TLR4) 0.1 ug/mL,0.998
Nc1ccncc1 (library stock concentration (final ~1000-fold dilution): 10 mM),IRF Lucia reporter activity,RAW-Dual [1]; [4],1.04
same,IRF Lucia reporter activity,RAW-Dual [1]; agonist: LPS (TLR4) 0.1 ug/mL,1.25
Nc1ccncc1,IRF Lucia reporter activity,RAW-Dual [2]; [5],1.05
CC12CCC3C(CCC4CC(O)CCC43C)C1CCC2=O (configuration not stated) (library stock concentration (final ~1000-fold dilution): 10 mM),IRF Lucia reporter activity,RAW-Dual [1]; [4],0.851
same,IRF Lucia reporter activity,RAW-Dual [1]; agonist: LPS (TLR4) 0.1 ug/mL,1.04
CC12CCC3C(CCC4CC(O)CCC43C)C1CCC2=O (configuration not stated),IRF Lucia reporter activity,RAW-Dual [2]; [5],1.19
CCN1CC2(COC)CCC(OC)C34C5CC6(O)C(OC)CC(OC(C)=O)(C5C6C(=O)c5ccc(OC)cc5)C(C(OC)C23)C14 (configuration not stated) (library stock concentration (final ~1000-fold dilution): 10 mM),IRF Lucia reporter activity,RAW-Dual [1]; [4],0.896
same,IRF Lucia reporter activity,RAW-Dual [1]; agonist: LPS (TLR4) 0.1 ug/mL,1.22
CCN1CC2(COC)CCC(OC)C34C5CC6(O)C(OC)CC(OC(C)=O)(C5C6C(=O)c5ccc(OC)cc5)C(C(OC)C23)C14 (configuration not stated),IRF Lucia reporter activity,RAW-Dual [2]; [5],1.01
